The supplement of paper PMC4967469
pIC50: −log10 of the molar value. The IC50 comes from the fitted curve, where viability falls to half of the control; where the fit passes the top or lowest dose, that dose stands as a limit. AUC, from the same fit, is the share of area under the viability curve across the 256-fold dose range; it is 1 without any effect and falls as sensitivity rises. Where the top dose is marked as inferred, it was calculated from the reported fits.

How the values were obtained:
NG-25 = compound: CCN1CCN(Cc2ccc(NC(=O)c3ccc(C)c(Oc4ccnc5[nH]ccc45)c3)cc2C(F)(F)F)CC1 [NG-25]; assay: Viability of human cancer cell lines after 72 h of drug (GDSC screen); settings: top dose 10.24 µM; top dose inferred
Procedure: (§1)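 Human cancer cell lines in 384-well plates, medium with 10% serum, drug for 72 h over a 256-fold dose range (nine 2-fold or five 4-fold steps up to the top dose). Adherent lines were fixed and stained with the nucleic acid dye Syto60, suspension lines read with resazurin; signal relative to control wells, capped at 0 and 100%. One two-parameter sigmoid per drug and line, fitted in a mixed model over all curves with the slope shared within a line.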

PFI-1 = compound: COc1ccccc1S(=O)(=O)Nc1ccc2c(c1)CN(C)C(=O)N2 [PFI-1]; assay: as above; settings: top dose 10 µM; top dose inferred
Procedure: as §1

| Cell Line | AUC (NG-25) | pIC50 (NG-25) | AUC (PFI-1) | pIC50 (PFI-1) |
| --- | --- | --- | --- | --- |
| JHOS-3 (ovary, adherent) | 0.945 | < 4.99 | 0.94 | < 5.00 |
| IGROV-1 (ovary, adherent) | – | – | 0.925 | < 5.00 |
| KATOIII (stomach, semi-adherent) | – | – | 0.975 | < 5.00 |
| TC-YIK (cervix, suspension) | – | – | 0.652 | 5.81 |
| OV-7 (ovary, adherent) | 0.936 | < 4.99 | 0.901 | < 5.00 |
| MOLT-16 (T-cell lymphoblastic leukaemia, suspension) | – | – | 0.708 | 5.68 |
| SNU-1040 (large intestine, adherent) | 0.836 | < 4.99 | 0.938 | < 5.00 |
| NCC010 (kidney, adherent) | – | – | 0.974 | < 5.00 |
| CADO-ES1 (Ewing sarcoma, suspension) | 0.793 | 5.32 | 0.959 | < 5.00 |
| VMRC-LCD (lung adenocarcinoma, adherent) | – | – | 0.896 | 5.06 |
| UWB1.289 (ovary, adherent) | 0.852 | < 4.99 | 0.898 | < 5.00 |
| SNU-175 (large intestine, suspension) | 0.84 | 5.19 | – | – |
| EMC-BAC-2 (lung adenocarcinoma, adherent) | 0.9 | < 4.99 | 0.783 | 5.29 |
| PEO1 (ovary, adherent) | 0.855 | 5.06 | 0.84 | 5.14 |
| COR-L32 (small cell lung carcinoma, suspension) | – | – | 0.834 | < 5.00 |
| QGP-1 (pancreas, adherent) | 0.897 | < 4.99 | 0.924 | < 5.00 |
| MEL-HO (melanoma, adherent) | – | – | 0.772 | 5.41 |
| OACM5-1 (oesophagus, semi-adherent) | 0.433 | 6.39 | 0.87 | < 5.00 |
| KARPAS-1106P (B-cell lymphoma, suspension) | – | – | 0.862 | 5.20 |
| RH-18 (rhabdomyosarcoma, adherent) | – | – | 0.84 | 5.08 |
| K-562 (chronic myeloid leukaemia, suspension) | 0.097 | > 7.40 | – | – |

| Cell Line | AUC (NG-25) | pIC50 (NG-25) | AUC (PFI-1) | pIC50 (PFI-1) |
| --- | --- | --- | --- | --- |
| NCI-H835 (lung carcinoid, suspension) | – | – | 0.939 | < 5.00 |
| SNU-81 (large intestine, adherent) | 0.975 | < 4.99 | 0.968 | < 5.00 |
| Hey (ovary, adherent) | 0.866 | 5.08 | 0.779 | 5.41 |
| YMB-1-E (breast, adherent) | 0.906 | < 4.99 | – | – |
| D-566MG (glioma, adherent) | 0.874 | 5.01 | 0.8 | 5.32 |
| DIFI (large intestine, adherent) | – | – | 0.922 | < 5.00 |
| RCC-ER (kidney, adherent) | 0.985 | < 4.99 | 0.945 | < 5.00 |
| RCH-ACV (B-cell leukaemia, suspension) | – | – | 0.881 | 5.13 |
| NCI-H508 (large intestine, semi-adherent) | – | – | 0.851 | < 5.00 |
| ESO26 (oesophagus, adherent) | 0.725 | 5.58 | 0.866 | 5.09 |
| D-423MG (glioma, adherent) | 0.793 | 5.23 | 0.877 | < 5.00 |
| SK-GT-2 (stomach, adherent) | – | – | 0.81 | 5.25 |
| TE-4 (oesophagus, adherent) | 0.986 | < 4.99 | 0.97 | < 5.00 |
| BALL-1 (B-cell leukaemia, suspension) | – | – | 0.955 | < 5.00 |
| COR-L303 (small cell lung carcinoma, suspension) | 0.893 | < 4.99 | – | – |
| MHH-CALL-2 (B-cell leukaemia, suspension) | – | – | 0.997 | < 5.00 |
| OVCA420 (ovary, adherent) | 0.894 | < 4.99 | 0.71 | 5.52 |
| ESO51 (oesophagus, semi-adherent) | 0.871 | < 4.99 | 0.912 | < 5.00 |
| ZR-75-30 (breast, adherent) | – | – | 0.981 | < 5.00 |
| Hs746T (stomach, adherent) | 0.895 | < 4.99 | 0.83 | 5.02 |
| SK-MEL-5 (melanoma, adherent) | 0.983 | < 4.99 | 0.851 | < 5.00 |

| Cell Line | AUC (NG-25) | pIC50 (NG-25) | AUC (PFI-1) | pIC50 (PFI-1) |
| --- | --- | --- | --- | --- |
| OACp4C (oesophagus, adherent) | 0.787 | 5.27 | 0.904 | < 5.00 |
| NCI-H929 (myeloma, suspension) | – | – | 0.673 | 5.76 |
| NCI-H1105 (small cell lung carcinoma, suspension) | – | – | 0.922 | < 5.00 |
| SK-MEL-31 (melanoma, adherent) | – | – | 0.936 | < 5.00 |
| RCC-AB (kidney, adherent) | 0.809 | 5.13 | 0.876 | < 5.00 |
| NCI-H146 (small cell lung carcinoma, suspension) | – | – | 0.936 | < 5.00 |
| OV-56 (ovary, adherent) | 0.945 | < 4.99 | 0.958 | < 5.00 |
| CL-34 (large intestine, adherent) | – | – | 0.898 | < 5.00 |
| MOLM-16 (acute myeloid leukaemia, suspension) | – | – | 0.628 | 5.87 |
| NCI-H630 (large intestine, adherent) | 0.945 | < 4.99 | 0.839 | 5.12 |
| COR-L321 (lung, suspension) | 0.95 | < 4.99 | 0.95 | < 5.00 |
| MKN7 (stomach, adherent) | – | – | 0.973 | < 5.00 |
| RCC-FG2 (kidney, adherent) | 0.841 | 4.99 | 0.932 | < 5.00 |
| A549 (lung adenocarcinoma, adherent) | – | – | 0.806 | 5.23 |
| BT-549 (breast, adherent) | – | – | 0.841 | < 5.00 |
| SU-DHL-10 (B-cell lymphoma, suspension) | 0.892 | 5.22 | 0.718 | 5.68 |
| OVK-18 (ovary, adherent) | 0.973 | < 4.99 | 0.892 | < 5.00 |
| NCC021 (kidney, adherent) | 0.812 | 5.18 | 0.963 | < 5.00 |
| COR-L311 (small cell lung carcinoma, suspension) | 0.861 | 5.01 | – | – |
| CRO-AP2 (B-cell lymphoma, suspension) | – | – | 0.685 | 5.72 |
| NCI-H1650 (lung adenocarcinoma, adherent) | – | – | 0.932 | < 5.00 |

| Cell Line | AUC (NG-25) | pIC50 (NG-25) | AUC (PFI-1) | pIC50 (PFI-1) |
| --- | --- | --- | --- | --- |
| HCC-366 (non-small cell lung carcinoma, adherent) | – | – | 0.925 | < 5.00 |
| CML-T1 (chronic myeloid leukaemia, suspension) | – | – | 0.948 | < 5.00 |
| EMC-BAC-1 (lung adenocarcinoma, adherent) | 0.86 | < 4.99 | 0.914 | < 5.00 |
| JEKO-1 (B-cell lymphoma, suspension) | – | – | 0.859 | 5.11 |
| SNU-407 (large intestine, adherent) | 0.88 | < 4.99 | 0.852 | 5.01 |
| CL-40 (large intestine, adherent) | – | – | 0.925 | < 5.00 |
| OV-17R (ovary, adherent) | 0.781 | 5.21 | 0.601 | 5.88 |
| FLO-1 (oesophagus, adherent) | 0.763 | 5.27 | 0.821 | 5.02 |
| OC-314 (ovary, adherent) | 0.849 | 5.22 | 0.759 | 5.52 |
| U-266 (myeloma, semi-adherent) | – | – | 0.948 | < 5.00 |
| NCI-N87 (stomach, adherent) | – | – | 0.873 | < 5.00 |
| H2810 (mesothelioma, adherent) | – | – | 0.862 | < 5.00 |
| EW-22 (Ewing sarcoma, adherent) | – | – | 0.77 | 5.44 |
| SUP-B8 (B-cell leukaemia, suspension) | – | – | 0.964 | < 5.00 |
| PWR-1E (prostate, adherent) | – | – | 0.972 | < 5.00 |
| NCI-H1341 (small cell lung carcinoma, suspension) | – | – | 0.924 | < 5.00 |
| NCI-H2066 (small cell lung carcinoma, adherent) | – | – | 0.891 | < 5.00 |
| OCI-LY7 (B-cell lymphoma, suspension) | – | – | 0.982 | < 5.00 |
| Jurkat (T-cell leukaemia, suspension) | – | – | 0.821 | 5.35 |
| KNS-62 (lung squamous cell carcinoma, adherent) | – | – | 0.721 | 5.45 |
| CHP-134 (neuroblastoma, suspension) | 0.822 | 5.09 | – | – |
